# “And” between values parts separate entries of the source, which are not always exact repeats. Identical values can stand only once. Over roughly 110,000 compounds, “z-score” has its median near -0.1; the highest 2% begin near 2. Some of the results follow. The source made the active and inactive calls.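 The calls were made as follows: active = z-score in the third read window above 3 or below -3; inactive = the rest.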
# Target: Metabotropic glutamate receptor 8 (Rattus norvegicus) (UniProt P70579)
# Experiment: rat mGluR8 modulators via GIRK flux, primary screen, cell-based, thallium flux, HTS (AID 488969)
# Conditions: HEK293 rat mGluR8, GIRK (G protein-gated inwardly rectifying potassium channel) thallium flux, FluoZin2; at 10 µM; stronger effect = higher value; submaximal glutamate (EC20) added with thallium
# Sequence of UniProt P70579 (P70579 whole entry, looked up): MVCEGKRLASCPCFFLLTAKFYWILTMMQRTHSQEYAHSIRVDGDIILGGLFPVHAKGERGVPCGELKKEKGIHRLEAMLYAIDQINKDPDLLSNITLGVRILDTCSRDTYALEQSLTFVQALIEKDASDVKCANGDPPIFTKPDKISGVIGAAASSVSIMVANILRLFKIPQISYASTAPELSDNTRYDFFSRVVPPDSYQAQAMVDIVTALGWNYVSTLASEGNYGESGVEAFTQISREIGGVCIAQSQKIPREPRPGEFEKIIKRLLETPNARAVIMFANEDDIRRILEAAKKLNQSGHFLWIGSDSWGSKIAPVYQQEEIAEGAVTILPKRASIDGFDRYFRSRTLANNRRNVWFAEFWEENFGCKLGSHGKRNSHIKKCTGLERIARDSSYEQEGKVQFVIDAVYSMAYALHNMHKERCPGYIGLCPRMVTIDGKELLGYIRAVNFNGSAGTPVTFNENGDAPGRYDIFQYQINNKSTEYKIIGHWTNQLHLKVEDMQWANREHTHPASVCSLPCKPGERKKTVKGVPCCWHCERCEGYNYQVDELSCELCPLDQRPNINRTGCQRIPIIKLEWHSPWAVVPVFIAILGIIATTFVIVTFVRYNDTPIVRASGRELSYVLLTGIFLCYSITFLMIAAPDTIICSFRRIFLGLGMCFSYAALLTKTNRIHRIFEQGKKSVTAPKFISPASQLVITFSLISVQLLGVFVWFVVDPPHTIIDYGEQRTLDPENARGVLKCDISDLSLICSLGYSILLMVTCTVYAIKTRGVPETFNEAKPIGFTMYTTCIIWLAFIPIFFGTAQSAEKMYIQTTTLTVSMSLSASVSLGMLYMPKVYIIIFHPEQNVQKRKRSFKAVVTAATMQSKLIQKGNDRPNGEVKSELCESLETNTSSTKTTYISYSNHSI
row,Compound,z-score
1,O=C(O)CSc1nnc(Cc2ccccc2)n1Cc1ccccc1,0.689
2,COc1ccc(-c2nnc(SC(C(=O)c3c[nH]c4ccccc34)c3ccccc3)n2N)cc1OC (centres undefined),-0.204
3,CSc1ccccc1-n1nnnc1SCc1ccccc1,-0.676
4,Cc1cccc2cc(C#N)c(NCCNC(=S)NCCCN3CCOCC3)nc12,0.368
5,CCOc1ccccc1OC(=O)c1ccco1,0.242
6,COCCNC(=O)CN1CCC(NC(=O)C(C)(C)C)CC1,0.0135
7,O=C(NCCCNc1ccc(C(F)(F)F)cc1[N+](=O)[O-])c1ccc(Cl)cc1,-0.166
8,O=C(Nc1ccc2c(c1)oc1ccccc12)c1ccc(Br)o1,-0.605
9,CC12CN3CC(C)(CN(C1)C3c1ccc(Cl)cc1Cl)C2=O (centres undefined),0.0767
10,Cc1ccc(C2Nc3ccccc3-c3nc4ccccc4n32)o1 (centres undefined),-1.64
11,Cc1cc(C)c2c(N)c(C(=O)N3CCN(c4ncccn4)CC3)sc2n1,0.00856
12,O=C(Nc1cccnc1)c1cc(-c2ccc(Br)cc2)on1,-1.57
13,O=c1cccccc1NCc1ccccc1,-0.106
14,O=C(NCc1ccncc1)Nc1ccc(F)cc1,0.337
15,Cc1cccc2cc(C#N)c(N3CCN(C)CC3)nc12,-0.388
16,Cc1ccc(NC(=O)C2CCCN(S(=O)(=O)c3c(C)noc3C)C2)nc1 (centres undefined),-0.0938
17,CC(C)(C)c1nc(C(C)(C)C)c(Br)c(=O)[nH]1,0.318
18,CCCCN(C(=N)N1CCCCC1)c1nc(C)c([N+](=O)[O-])c(=O)[nH]1,-0.205
19,CC(=O)/C(=C/N(C)C)Sc1ccc(C)cc1,-0.0821
20,Nc1ccc2nc(-c3cccs3)[nH]c2c1,-0.935
21,CC1CC(C)CN(S(=O)(=O)c2cccc(C(=O)N3C(=O)c4cccc(N)c4C3=O)c2)C1 (centres undefined),-0.133
22,O=C(OCC(=O)N1CCN(c2ccccc2)CC1)C1=COCCO1,-0.0336
23,O=C(Nc1ccc(N2CCN(C(=O)c3ccccc3)CC2)c(Cl)c1)c1ccc(Br)o1,-0.134

row,Compound,z-score
1,C=CCC1(C#N)C(SC)=NC2=C(C(=O)CC(C)(C)C2)C1c1ccc(Br)cc1 (centres undefined),0.236
2,Cc1sc(NC(=O)c2cc(-c3ccccc3)nc3ccccc23)c(C(N)=O)c1C,-0.081
3,CCOn1c(=O)c(=O)n(OCc2ccccc2)c2ccccc21,-0.158
4,S=C(Nc1ccccc1)N1CCN(C2CCCCC2)CC1,-0.324
5,CCCCN1CC(O)=C(c2nc(-c3ccc(Cl)cc3)cs2)C1=N,-0.145
6,Cc1ccc(Cl)cc1NC(=O)COC(=O)C12CC3CC(CC(C3)C1)C2,0.107 and -0.194
7,CC(C)N(C(=O)C(F)(F)F)C(C(=O)NC1CCCCC1)c1ccncc1 (centres undefined),0.311
8,COc1ccccc1N1CC(C(=O)OCC(=O)c2ccc(F)cc2)CC1=O (centres undefined),-0.372
9,COC(=O)c1nn(-c2ccc3c(c2)CCN3C(C)=O)cc1O,-0.0858
10,COC(=O)c1c(CSc2ccc(C)c(C)c2)noc1C(=O)NCc1ccc(OC)cc1,-0.148
11,Cc1cccc(NC(=O)CSc2nc(-c3ccccc3)c(C#N)c(=O)[nH]2)c1C,-0.322
12,CCC(C(=O)NCc1ccc(OC)cc1)n1nc(C)n2c(cc3occc32)c1=O (centres undefined),0.243
13,O=C(c1cccs1)N(C(=O)c1cccs1)c1ccc(Br)cn1,2.26
14,CC1C(=O)CCCCCCCCCC2C1(N1CCOCC1)CS2(=O)=O (centres undefined),0.133
15,N#CCSc1nnc2sc3ccccc3n12,-0.0636
16,CCCC(=O)Nc1ccc(C(=O)NN=C(C2CC2)C2CC2)cc1,-0.291
17,CCn1c(=O)c([N+](=O)[O-])c(NCC(O)c2ccccc2)c2ccccc21 (centres undefined),-0.241
18,COc1ccc(C(=O)NC(=O)Nc2cc(C)ccn2)cc1,-0.705
19,CC(NC(=O)Cc1cccs1)C(c1cccs1)N1CCN(c2ccccc2F)CC1 (centres undefined),-0.436
20,COc1ccccc1Oc1ccc2c(c1)C(=O)N(c1ccc(Br)c3cccnc13)C2=O,0.318
21,Cc1ccc(CNC(=O)C2CC(=O)OC23CCCC3)c(C)c1 (centres undefined),-0.122
22,Cn1nnc(NC(=O)CSc2ncn[nH]2)n1,-0.711
23,COc1ccc(C(NC(=O)C(C)C)c2c(O)ccc3ccccc23)cc1OC (centres undefined),-0.145

row,Compound,z-score
1,O=C(NCc1ccccc1)N1CCC(n2cnc3cc(F)ccc32)CC1,-0.134
2,COC(=O)COc1ccc(S(=O)(=O)NCc2ccco2)cc1,-0.0668
3,COC(=O)C1CCN(c2cc(=O)n(C3CCCCC3)c(=O)[nH]2)CC1,-0.0521
4,Cc1ccc2c(c1)C1(OCCO1)C(=O)N2,-0.0754
5,O=c1cc(N2CCN(c3ccccc3)CC2)[nH]c(=O)n1Cc1ccc(F)cc1,-0.202
6,Cc1cc(C)n(-c2ccc(C(=O)OCC(=O)Nc3ccc(S(=O)(=O)N4CCOCC4)cc3)cc2)n1,1.12
7,COc1ccccc1N1CCN(C(=O)c2cc(-c3ccc4c(c3)OCO4)on2)CC1,-0.0906
8,C=CCNc1ncnc2ccccc12,-0.206
9,COc1cccc(N2CC(C(=O)OC(C)C(=O)c3ccccc3)CC2=O)c1 (centres undefined),-0.0599
10,COc1ccc(-n2nnc3c(=O)n(Cc4cc(C)ccc4C)cnc32)cc1,-0.177
11,Cc1ccc(NC(=O)c2cc(=O)c3ccccc3o2)c(C)c1,0.414
12,O=C(NCCc1ccccc1)c1ccc(CS(=O)(=O)Cc2ccccc2F)o1,-0.21
13,COc1cccc(C(=O)CSc2nnc(-c3cccs3)o2)c1,-0.28
14,COc1ccc(OC)c(C(=O)COC(=O)CNC(=O)c2ccccc2)c1,-0.486
15,CCC(C)Sc1nc(O)cc(=O)[nH]1 (centres undefined),0.0633
16,CC12CC3CC(C)(C1)CC(C(=O)NC(=S)N1CCCCC1)(C3)C2,active: 8.62
17,CCN(CC)C(=O)CSc1nsc(SCC(=O)N(CC)CC)c1C#N,0.00897
18,CCN1CCN(CC(=O)Nc2c(C(=O)OC)[nH]c3cccc(Cl)c23)CC1,0.0978
19,Clc1ccc(SCc2cn3cccnc3n2)cc1,-0.175
20,COc1nc(C#N)c(N2CCOCC2)o1,-0.118
21,COc1ccc(/C(N)=N/OC(=O)c2ccc3c(c2)OCO3)cc1OC,-0.294
22,O=C(NCc1ccco1)C(c1ccncc1)N(CCC1=CCCCC1)C(=O)Cn1nnc2ccccc21 (centres undefined),-0.0711
23,O=C1c2ccccc2NC(c2cnc3ccccc3n2)N1O (centres undefined),-0.216

row,Compound,z-score
1,CCOC(=O)C(=O)Nc1nc(-c2ccccc2)c(CC)s1,-1.37
2,COc1ccc(-c2cc(C(F)(F)F)nc(SCCC(=O)N3CCCC3)n2)cc1,0.386
3,O=C(CSc1ncn[nH]1)NCCC(c1ccccc1)c1ccccc1,-0.443
4,Cc1ccc(S(C)(=O)=O)cc1S(=O)(=O)Nc1ccccc1,-0.0942
5,CCN(CC)S(=O)(=O)c1ccc(N2C(=O)Nc3ccccc3N2O)cc1,-0.0358
6,Cc1ccc(-n2c(Cc3cccn3C)nnc2SCC(=O)NC2CCCCC2)cc1,0.061
7,CCOC(=O)c1cc2c(nc1N)CC(C)(C)OC2,-0.353
8,Cc1c(/C=N\NC(=O)C2COc3ccccc3O2)c2ccccc2n1C (centres undefined),-0.12
9,CCC(=O)Nc1ccc(SC#N)cc1C,0.137
10,Cc1cccc(OCC(=O)N2CCN(C(=O)c3cccs3)CC2)c1,-0.8
11,O=C(Oc1ccc(-c2nnco2)cc1)N1CCOCC1,0.766
12,CCOc1ccc(C(=O)Nc2ccc(NC(=O)c3cccs3)cc2)cc1[N+](=O)[O-],-0.129
13,CCN(CC)c1ccc(-n2c(O)c(C=C3N=c4ccccc4=N3)sc2=S)cc1,-0.392
14,Cc1ccccc1NCc1ccccc1O,-0.623
15,CC1CCN(CCCNC(=O)C2CCN(S(=O)(=O)N3CCCCC3)CC2)CC1,0.641
16,COc1cc(/C=C/C(=O)OCC(=O)N2CCc3ccccc3C2)ccc1O,-0.652
17,CC(C)C(=O)N(Nc1nc2ccccc2s1)C(=O)C(C)C,0.308
18,CCN(CC)C(=O)CCC(=O)Nc1ccc(C(=O)OC)cc1,0.225
19,O=C(/C=C/c1ccccc1)NC(=S)NNC(=O)c1cccnc1,0.417
20,O=C(O)C1CC(=O)N(c2ccc(F)c(F)c2)C1 (centres undefined),0.0874
21,CCCCCCn1c(SCC(=O)c2c(N)n(C)c(=O)n(C)c2=O)nc2ccccc21,-0.182
22,CCc1nnc(NC(=O)NC(C)(C)C)s1,-0.201
23,CCOC(=O)c1ccc(N2C(=O)C=CC2=O)cc1,0.192

row,Compound,z-score
1,Nc1nc(Cl)cc(N2CCOCC2)n1,-0.137
2,COc1ccc(CCC(=O)Nc2ccc(-c3noc(-c4ccc(OC)c(OC)c4)n3)cc2)cc1,-0.342
3,COCCNC(=O)C1CCC(=O)N(c2ccc(OC)cc2)C1c1ccc(OC)c(OC)c1 (centres undefined),0.711
4,Cc1c(NC2=NC3(CCCCC3)Cc3ccccc32)c(=O)n(C)n1-c1ccccc1,-0.223
5,COc1ccc(N2CC(C(=O)Nc3nnc(SCC(=O)c4ccccc4)s3)CC2=O)cc1 (centres undefined),-0.344
6,O=C(O)CSc1nnc(-c2ccccc2O)n1Cc1ccccc1,0.037
7,CC(=O)c1cccc(NC(=S)NC(=O)CC(C)(C)C)c1,-0.0212
8,O=C1OCCC1Sc1nnnn1-c1ccccc1 (centres undefined),-0.169
9,S=C1NC2=C(CCC/C2=C\c2ccccc2)C(c2ccccc2)N1 (centres undefined),0.864
10,CCOC(=O)C(NC(=O)c1ccccc1)(OCC1(CC)COC1)C(F)(F)F (centres undefined),-0.096
11,N#Cc1cc2ccccc2nc1SCc1ccccn1,-1.05
12,COc1ccc(CCc2nc(-c3ccc(-n4cccc4)cc3)no2)cc1,-0.0163
13,Cc1noc(NS(=O)(=O)c2ccc(NC(=O)CSc3nnc4c(n3)[nH]c3ccccc34)cc2)c1C,-0.015
14,O=C(CCCN1C(=O)CCC1=O)Nc1ccccc1F,-0.0546
15,C=CCNC(=S)Nc1ccc2nsnc2c1,0.113
16,CC1=C(C(=O)Nc2ccccc2)C(c2ccccn2)n2ncnc2N1 (centres undefined),-0.125
17,CC(=O)Nc1ccc(OCC(O)CN2CCN(c3ccccc3Cl)CC2)cc1 (centres undefined),0.528
18,O=C(Oc1cccc(N2C(=O)CCC2=O)c1)C1CC(=O)N(c2ccc(Br)cc2)C1 (centres undefined),-2.3
19,O/N=C/c1ccccc1OCc1ccc(Cl)cc1,-0.391
20,Cc1cccc(OCc2nnc(SCc3nc4ccccc4c(=O)[nH]3)o2)c1,0.369
21,O=C(NC1CCCCC1)C(c1cccnc1)N(C(=O)c1csnn1)C1CCCC1 (centres undefined),-0.0934
22,COc1cccc(CN(CC(=O)NCC2CCCO2)C(=O)CNS(=O)(=O)c2ccccc2)c1 (centres undefined),-0.0821

# From PubChem BioAssay AID488969 (Vanderbilt High Throughput Screening Facility, 2010)
